Laboratory results reported in patent US11344574B2, “Fluoro substituted porphyrin compounds, pharmaceutical compositions comprising the same, and methods of preparing and using the same” (Duke University, priority 2017, dated 2022).

Experiments:
[1] = Maximal tolerable dose (MTD) studies; set-up: species or system rats; conditions: rat, in vivo, ip; intraperitoneal
Protocol: The dose we identified as entirely safe was then given for 2 weeks. […] A dose above 0.5 mg/kg of MnTF3Pen-2-PyP^5+ seems to impose some toxicity expressed as hypotonia and reluctance to ambulate. We have thus decided to continue with 0.5 mg/kg which appears as safe non-toxic MTD dose for multiple dosing.

[2] = system: PC3 cells; test: Clonogenic survival of PC3 cells with MnP alone or with radiation and ascorbate; format: cell-based
Protocol: Aggressive prostate tumor PC-3 cells were treated overnight with PBS, MnTE-2-PyP^5+ (Mn1), or MnTFE-2-PyP^5+ (Mn3) using doses of 0.1 μM, 0.5 μM, and 1 μM. […] Each sample was serially diluted, and seeded into 6-well plates at 500 cells/well in three technical replicates. The cells were allowed to grow for 11 days then fixed with 70% EtOH and stained in 0.5% crystal violet and 25% methanol. Colonies containing 50 or more cells were counted and reported as the surviving fraction of cells seeded, normalized to plating efficiency of untreated cells at the same density. These experiments were repeated in triplicate and the mean and SEM were reported.
FIG. 3 depicts the results from an examination of the effectiveness of MnTFE-2-PyP^5+ (Mn3, FIG. 1, Formula II) in killing the radiation-resistant prostate cancer cell line (PC3) compared with its non-fluorinated analog, MnTE-2-PyP^5+ (Mn1, FIG. 1)). […] Fluoro porphyrins distribute less in vivo than do non-fluoro analogs (FIG. 6) but seem to have kinetic advantage in producing larger therapeutic effects.

[3] = Levels of Mn porphyrins in tumor, muscle and liver of the sc flank 4T1 mouse study (LCMS/MS); conditions: 2 mg/kg

levels in tumor, muscle and liver (in words) [3] | SMILES | MTD at 2 weeks [1] | cytotoxicity towards radiation-resistant prostate cancer cell line [2]
 | O=C1O[C@H]([C@@H](O)CO)C(O)=C1O [ascorbate, reference compound] | 1000 mg/kg | 
 | FCC[n+]1ccccc1C1=C2C=CC3=[N+]2[Mn]24[n]5c1ccc5C(c1cccc[n+]1CCF)=C1C=CC(=[N+]12)C(c1cccc[n+]1CCF)=c1ccc([n]14)=C3c1cccc[n+]1CCF [Mn3, Mn(III) 5,10,15,20-tetra(2-fluoroethylpyridinium-2-yl)porphinato pentachloride] |  | cytotoxicity to tumor cells
highest accumulation in tumor | CC[n+]1ccccc1-c1c2nc(c(-c3cccc[n+]3CC)c3ccc([n-]3)c(-c3cccc[n+]3CC)c3nc(c(-c4cccc[n+]4CC)c4ccc1[n-]4)C=C3)C=C2.[Mn+3] [Mn1, MnTE-2-PyP^5+, reference compound] |  | cytotoxicity to tumor cells
